In this experiment the test system is Plasmodium falciparum NF54/iGP1_RE9H ulg8 stage V gametocytes. Description: gametocyte viability (luciferase signal relative to DMSO control) (% of DMSO control); higher = less gametocytocidal activity, active = 50 or less. The conditions noted are these: exposure time: 72 h. In short, it runs like this: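 NF54/iGP1_RE9Hulg8 stage V gametocytes (day 12; ~2.5% gametocytemia, 3% hematocrit) were incubated with compounds at 10 µM or 1 µM final, in one well each, for 72 h at 37 °C in medium with 0.5% Albumax II. Luminescence after D-luciferin addition was read on an IVIS Lumina II. Viability refers to the mean of plate DMSO vehicle wells.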

Structures can show the parent of a compound that is named as a salt. Out of some 1,300 compounds screened, about 40 (3%) showed activity. This is one part of the list.

As to `O=C1Cc2cc(CCN3CCN(c4nsc5ccccc45)CC3)c(Cl)cc2N1` [Ziprasidone  Hydrochloride], the gametocyte viability (concentration: 1 µM) is inactive: 82.9 and the gametocyte viability (concentration: 10 µM) is inactive: 71.6.

Take `O=c1cc(-c2ccc(O)c(O)c2)oc2cc(O)cc(O)c12` [Luteolin]: the gametocyte viability (concentration: 1 µM) is inactive: 81.1 and the gametocyte viability (concentration: 10 µM) was inactive: 73.3.

As to `CC(C)(C(=O)c1cccnc1)c1cccnc1` [Metyrapone], the gametocyte viability runs as follows: (concentration: 1 µM) inactive: 86.8; (concentration: 10 µM) inactive: 76.4.

For `CN(C)c1ccc(O)c2c1C[C@H]1C[C@H]3[C@H](N(C)C)C(=O)C(C(N)=O)=C(O)[C@@]3(O)C(=O)C1=C2O` [Minocycline hydrochloride], the gametocyte viability (concentration: 1 µM) was inactive: 83.1 and the gametocyte viability (concentration: 10 µM) is inactive: 83.3.

For the compound `CN1CCc2cccc3c2[C@H]1Cc1ccc(O)c(O)c1-3` [R(-) Apomorphine hydrochloride hemihydrate], the gametocyte viability was inactive: 85.5 (concentration: 1 µM) and inactive: 86.9 (concentration: 10 µM).

As for `CCC(NC(C)C)C(O)c1ccc(O)c(O)c1` (centres undefined) [Isoetharine mesylate salt], the gametocyte viability was inactive: 82.4 (concentration: 1 µM) and inactive: 84.1 (concentration: 10 µM).

As for `CCC(Cc1c(I)cc(I)c(N)c1I)C(=O)O` (centres undefined) [Iopanoic acid], the gametocyte viability runs as follows: (concentration: 1 µM) inactive: 87; (concentration: 10 µM) inactive: 85.7.

In the case of `CO[C@@]1(NC(=O)CSCC#N)C(=O)N2C(C(=O)O)=C(CSc3nnnn3C)CS[C@@H]21` [Cefmetazole sodium salt], the gametocyte viability is, setting by setting: (concentration: 1 µM) inactive: 94.1; (concentration: 10 µM) inactive: 88.9.

Turning to `CC(C)NC[C@H](O)COc1ccc(CC(N)=O)cc1` [(S)-(-)-Atenolol], the gametocyte viability was inactive: 89.7 (concentration: 1 µM) and inactive: 92.6 (concentration: 10 µM).

Take `CCOC(=O)C(C)(C)Oc1ccc(Cl)cc1` [Clofibrate]: the gametocyte viability runs as follows: (concentration: 1 µM) inactive: 98.6; (concentration: 10 µM) inactive: 102.

As to `CN1CCC(=C2c3ccccc3CC(=O)c3sccc32)CC1` [Ketotifen fumarate], the gametocyte viability reads like this: (concentration: 1 µM) inactive: 79.5; (concentration: 10 µM) inactive: 84.2.

`COc1ccccc1N1CCN(CC(O)COc2cccc3ccccc23)CC1` (centres undefined) [Naftopidil dihydrochloride]: the gametocyte viability reads like this: (concentration: 1 µM) inactive: 90.8; (concentration: 10 µM) inactive: 83.2.

As to `CN1CCCC(CC2c3ccccc3Sc3ccccc32)C1` (centres undefined) [Metixene hydrochloride], the gametocyte viability was inactive: 94.4 (concentration: 1 µM) and inactive: 78.9 (concentration: 10 µM).

As to `CCN1C(=O)NC(c2ccccc2)C1=O` (centres undefined) [Ethotoin], the gametocyte viability was inactive: 94 (concentration: 1 µM) and inactive: 83.9 (concentration: 10 µM).

For the compound `CCCN(CCC)C(=O)C(CCC(=O)O)NC(=O)c1ccccc1` (centres undefined) [Proglumide], the gametocyte viability (concentration: 1 µM) was inactive: 85.7 and the gametocyte viability (concentration: 10 µM) is inactive: 84.5.

`COc1ccc2c(c1)N(C[C@H](C)CN(C)C)c1ccccc1S2` [Methotrimeprazine maleat salt]: the gametocyte viability reads like this: (concentration: 1 µM) inactive: 96.9; (concentration: 10 µM) inactive: 89.7.

Turning to `N#CC(c1ccc(Cl)cc1)c1c(Cl)cc(-n2ncc(=O)[nH]c2=O)cc1Cl` (centres undefined) [Diclazuril], the gametocyte viability is inactive: 92.9 (concentration: 1 µM) and inactive: 91.4 (concentration: 10 µM).

Consider `COc1cc(OC)c(C(=O)CCCN2CCCC2)c(OC)c1` [Buflomedil hydrochloride], for which the gametocyte viability is, setting by setting: (concentration: 1 µM) inactive: 83.9; (concentration: 10 µM) inactive: 85.2.

Consider `Cn1ccnc1S` [Methimazole], for which the gametocyte viability reads like this: (concentration: 1 µM) inactive: 88; (concentration: 10 µM) inactive: 81.6.

As to `Nc1c(Br)cc(Br)cc1CN[C@H]1CC[C@H](O)CC1` [Ambroxol hydrochloride], the gametocyte viability by setting is: (concentration: 1 µM) inactive: 83.3; (concentration: 10 µM) inactive: 89.8.

Turning to `CC(C)(Sc1cc(C(C)(C)C)c(O)c(C(C)(C)C)c1)Sc1cc(C(C)(C)C)c(O)c(C(C)(C)C)c1` [Probucol], the gametocyte viability is inactive: 84.2 (concentration: 1 µM) and inactive: 85.2 (concentration: 10 µM).

In the case of `CN(C)CC/C=C1\c2ccccc2CSc2ccccc21` [Dosulepin hydrochloride], the gametocyte viability reads like this: (concentration: 1 µM) inactive: 88; (concentration: 10 µM) inactive: 82.9.

For `CC(C)(Oc1ccc(Cl)cc1)C(=O)O` [Clofibric acid], the gametocyte viability (concentration: 1 µM) is inactive: 93 and the gametocyte viability (concentration: 10 µM) is inactive: 93.1.

As for `CO[C@H]1C[C@H](O[C@H]2[C@H](C)[C@@H](O[C@@H]3O[C@H](C)C[C@H](N(C)C)[C@H]3OC(C)=O)[C@@H](C)C[C@@]3(CO3)C(=O)[C@H](C)[C@@H](OC(C)=O)[C@@H](C)[C@@H](C)OC(=O)[C@@H]2C)O[C@@H](C)[C@@H]1OC(C)=O` [Troleandomycin], the gametocyte viability reads like this: (concentration: 1 µM) inactive: 83.6; (concentration: 10 µM) inactive: 88.8.

Regarding `COc1ccc(-c2ccc(=N)n(CCCC(=O)O)n2)cc1` [Gabazine bromide], the gametocyte viability was inactive: 81.2 (concentration: 1 µM) and inactive: 82.5 (concentration: 10 µM).

Consider `Cc1cc(C(=O)NNCc2ccccc2)no1` [Isocarboxazid], for which the gametocyte viability is inactive: 98.7 (concentration: 1 µM) and inactive: 85 (concentration: 10 µM).

Regarding `CC(C)(S)[C@@H](N)C(=O)O` [Penicillamine], the gametocyte viability (concentration: 1 µM) was inactive: 92.4 and the gametocyte viability (concentration: 10 µM) was inactive: 93.1.

`Cn1c(=O)c2c(ncn2CC(=O)O)n(C)c1=O` [Acefylline]: the gametocyte viability is inactive: 81.2 (concentration: 1 µM) and inactive: 93.5 (concentration: 10 µM).

For the compound `C=C[C@H]1CN2CC[C@H]1C[C@@H]2[C@@H](O)c1ccnc2ccc(OC)cc12` [Quinidine hydrochloride monohydrate], the gametocyte viability by setting is: (concentration: 1 µM) inactive: 71.2; (concentration: 10 µM) inactive: 51.7.

With `Cc1cccc(C)c1NC(=O)C1CCCCN1C` (centres undefined) [Mepivacaine hydrochloride], the gametocyte viability is inactive: 88.3 (concentration: 1 µM) and inactive: 88.5 (concentration: 10 µM).

As for `Cc1ncc([N+](=O)[O-])n1CC(O)CCl` (centres undefined) [Ornidazole], the gametocyte viability is inactive: 78.7 (concentration: 1 µM) and inactive: 82.6 (concentration: 10 µM).

`CN1C(C(=O)Nc2ccccn2)=C(O)c2sccc2S1(=O)=O` [Tenoxicam]: the gametocyte viability was inactive: 92 (concentration: 1 µM) and inactive: 88.2 (concentration: 10 µM).
